About 200 (0.47%) of roughly 43,000 compounds were called active. Another 12% or so got no clear call; they are omitted. Calls come from the whole dose curve; as a rule, active = well fitted cell-killing curve with a large enough effect; inconclusive = small, poorly fitted or top-dose-only effect, or effect the other way; inactive = flat fitted curve, though single readings scatter. The list shows a part of the results.
Test: Cell viability qHTS assay in S16 Pmp22-F2sN cells; note: nearly all actives have a fitted effect of over 65% in size
Details: S16 Pmp22-F2sN Schwann cells viability, CellTiter-Glo, 24 h; at 57.5 µM (top of the series)
Outline: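 Viability was measured by CellTiter-Glo luminescence (15 min, room temperature). This followed 24 h at 37 °C of compound exposure (23 nL pin transfer) in S16 Pmp22-F2sN Schwann cells, 500-1,000 per well.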
For `Cc1cccc(Cn2cccc(C(=O)Nc3nc4ccccc4s3)c2=O)c1`, the activity change, negative = cytotoxicity was inactive: 1.91%.
For `COc1cccc(-n2c(/C=C/c3cccc(C)c3)nc3ccccc3c2=O)c1`, the activity change, negative = cytotoxicity was inactive: 3.56%.
For `Cc1cccc(-n2c(CC3C(=O)Nc4ccc(C)cc43)nc3ccccc3c2=O)c1` (stereo not given), the activity change, negative = cytotoxicity was inactive: 5.65%.
With `Cc1ccc(-n2c(/C=C/c3cccc4ccccc34)nc3ccccc3c2=O)cc1` the activity change, negative = cytotoxicity was inactive: -5.96%.
For `O=C(Nc1ccccc1C(F)(F)F)c1cccn(Cc2ccccc2)c1=O`, the activity change, negative = cytotoxicity was inactive: 3.95%.
With `Cc1ccccc1-n1c(/C=C/c2ccccc2F)nc2ccccc2c1=O` the activity change, negative = cytotoxicity was inactive: 1.89%.
In the case of `COc1ccc(OC)c(C(c2c(O)c3ccccc3oc2=O)c2c(C)n(C)n(-c3ccccc3)c2=O)c1` (stereo not given), the activity change, negative = cytotoxicity is reported as inactive: -7.73%.
For `CC(C)c1ccc(OCC(=O)N2CCN(CCc3ccncc3)CC2)cc1`, the activity change, negative = cytotoxicity was inactive: 4.59%.
In the case of `CCOc1ccc(CN(CCc2ccc3c(c2)OCO3)Cc2cc(OC)ccc2O)cc1`, the activity change, negative = cytotoxicity is reported as inactive: 21.9%.
In the case of `Cc1cc(OCC(=O)N2CCN(CCc3ccncc3)CC2)ccc1Cl`, the activity change, negative = cytotoxicity is reported as inactive: -10.1%.
With `CSc1ccc(CN2CCN(C(=O)COc3cccc(C)c3)CC2)cc1` the activity change, negative = cytotoxicity was inactive: -5.69%.
With `Cc1cccc(-n2c(/C=C/c3c[nH]c4ccccc34)nc3ccccc3c2=O)c1` the activity change, negative = cytotoxicity was inactive: 4%.
For `Cc1cccc(Cn2cccc(C(=O)Nc3cc(C)on3)c2=O)c1`, the activity change, negative = cytotoxicity was inactive: 6.12%.
For `CCOc1ccc(CN(CCc2ccc3c(c2)OCO3)Cc2cccc(C)c2)cc1`, the activity change, negative = cytotoxicity was inactive: 7.67%.
With `Cc1cc(OCC(=O)N2CCN(CCc3ccccn3)CC2)cc(C)c1Cl` the activity change, negative = cytotoxicity was inactive: -0.629%.
With `Cc1cccc(C2CC(=O)Oc3c2c(=O)oc2ccccc32)c1` (stereo not given) the activity change, negative = cytotoxicity was inactive: 1.93%.
For `COc1ccc(CN2CCN(C(=O)COc3ccccc3)CC2)c(OC)c1`, the activity change, negative = cytotoxicity was inactive: -16.4%.
For `Cc1cc(NC(=O)c2cccn(Cc3ccccc3)c2=O)no1`, the activity change, negative = cytotoxicity was inactive: 4.78%.
For `Cc1cccc2sc(NC(=O)c3cccn(Cc4ccccc4)c3=O)nc12`, the activity change, negative = cytotoxicity was inactive: -6.26%.
In the case of `Nc1c(C(=O)Nc2cccc(Br)c2)sc2nc3c(cc12)N1CCC3CC1`, the activity change, negative = cytotoxicity is reported as inactive: -23.9%.
With `COc1ccc(OCC(=O)N2CCN(Cc3cccc(OC)c3OC)CC2)cc1` the activity change, negative = cytotoxicity was inactive: 0.461%.
In the case of `Cc1cc(C)cc(OCC(=O)Nc2ccc(Cl)cc2C(=O)c2ccccc2)c1`, the activity change, negative = cytotoxicity is reported as inactive: 8.31%.
With `O=S1(=O)N(Cc2ccccc2)CCCN1Cc1ccc(F)cc1Cl` the activity change, negative = cytotoxicity was inactive: 0.759%.
With `Cc1ccc(OCC(=O)Nc2ccc(Cl)cc2C(=O)c2ccccc2)cc1` the activity change, negative = cytotoxicity was inactive: -0.408%.
In the case of `O=C(Nc1ccc(Br)cc1C(=O)c1ccccc1)c1ccccc1`, the activity change, negative = cytotoxicity is reported as inactive: 20.1%.
For `COC(=O)c1ccc(NC(=O)c2cccn(Cc3ccccc3C)c2=O)cc1`, the activity change, negative = cytotoxicity was inactive: 1.99%.
In the case of `O=c1c2ccccc2nc(/C=C/c2ccccc2)n1-c1ccccc1F`, the activity change, negative = cytotoxicity is reported as inactive: -1.27%.
For `Cc1nnc(NC(=O)c2cccn(Cc3cccc(Cl)c3)c2=O)s1`, the activity change, negative = cytotoxicity was inactive: -0.131%.
For `COc1cc(C(c2c(O)c3ccccc3oc2=O)c2c(C)n(C)n(-c3ccccc3)c2=O)ccc1O` (stereo not given), the activity change, negative = cytotoxicity was inactive: 7.18%.
For `CN1CCN(c2oc(-c3ccc(COc4ccccc4)o3)nc2C#N)CC1`, the activity change, negative = cytotoxicity was inactive: -0.02%.
For `Cn1cc(/C=C/c2nc3ccccc3c(=O)n2-c2ccccc2)c2ccccc21`, the activity change, negative = cytotoxicity was inactive: 3.21%.
In the case of `O=C(Nc1ccc2c(c1)OCO2)c1cccn(Cc2cccc(F)c2)c1=O`, the activity change, negative = cytotoxicity is reported as inactive: 4.69%.
With `Nc1c(C(=O)Nc2ccc(Cl)cc2)sc2nc3c(cc12)N1CCC3CC1` the activity change, negative = cytotoxicity was inactive: -24.6%.
In the case of `COc1ccccc1NC(=O)N(Cc1ccc2c(c1)OCO2)C1CCN(Cc2ccccc2)CC1`, the activity change, negative = cytotoxicity is reported as inactive: -7.46%.
In the case of `Nc1c(C(=O)Nc2ccc(Br)cc2F)sc2nc3c(cc12)N1CCC3CC1`, the activity change, negative = cytotoxicity is reported as inactive: 3.07%.
For `Cc1cccc(-n2c(/C=C/c3c(C)[nH]c4ccccc34)nc3ccccc3c2=O)c1`, the activity change, negative = cytotoxicity was inactive: 27.4%.
In the case of `COc1cc(C(c2c(O)c3ccccc3oc2=O)c2c(C)n(C)n(-c3ccccc3)c2=O)ccc1OCC(=O)O` (stereo not given), the activity change, negative = cytotoxicity is reported as inactive: -2.08%.
In the case of `O=C(Nc1ccc(Cl)cc1C(=O)c1ccccc1)c1ccccc1Br`, the activity change, negative = cytotoxicity is reported as inactive: 1.07%.
With `Cc1c(Cl)cccc1NC(=O)CN1C(=O)C(C)N=C(c2ccccc2)c2ccccc21` (stereo not given) the activity change, negative = cytotoxicity was inactive: -0.358%.
With `CCOc1ccc2nc(NC(=O)c3cccn(Cc4ccc(Cl)cc4)c3=O)sc2c1` the activity change, negative = cytotoxicity was inactive: 16.9%.
In the case of `COc1ccc(-c2nc(CN3C(=O)CN=C(c4ccccc4)c4cc(Cl)ccc43)c(C)o2)cc1`, the activity change, negative = cytotoxicity is reported as inactive: -28.3%.
With `O=C(Nc1ccc2c(c1)OCCO2)c1cccn(Cc2cccc(F)c2)c1=O` the activity change, negative = cytotoxicity was inactive: 6.47%.
In the case of `CCc1ccccc1NC(=O)c1cccn(Cc2ccccc2F)c1=O`, the activity change, negative = cytotoxicity is reported as inactive: 10.5%.
In the case of `CSc1ccc(CN2CCN(C(=O)COc3ccc(C)cc3)CC2)cc1`, the activity change, negative = cytotoxicity is reported as inactive: -2.59%.
In the case of `CCOc1ccc2nc(NC(=O)c3cccn(Cc4ccccc4)c3=O)sc2c1`, the activity change, negative = cytotoxicity is reported as inactive: 5.91%.
% is set by controls: 0 for no effect and ±100 for the full control effect.
